Out of some 220,000 compounds screened, about 16,000 (7.3%) were called active. This list was built around the results that the source calls inconclusive (neither active nor inactive); the mix of calls is not that of the screen. Calls follow the shape of the dose curve; as a rule, active = well fitted inhibition curve with a large enough effect (not every such curve was filed as active); inconclusive = small, poorly fitted or top-dose-only effect, or another doubt; inactive = no such curve, though single readings can be large or run the other way. Potencies of inconclusive entries are left out as doubtful fits.
Biological target: Aldehyde dehydrogenase 1A1 (Homo sapiens) (UniProt P00352)
Sequence of UniProt P00352 (P00352 whole entry, looked up): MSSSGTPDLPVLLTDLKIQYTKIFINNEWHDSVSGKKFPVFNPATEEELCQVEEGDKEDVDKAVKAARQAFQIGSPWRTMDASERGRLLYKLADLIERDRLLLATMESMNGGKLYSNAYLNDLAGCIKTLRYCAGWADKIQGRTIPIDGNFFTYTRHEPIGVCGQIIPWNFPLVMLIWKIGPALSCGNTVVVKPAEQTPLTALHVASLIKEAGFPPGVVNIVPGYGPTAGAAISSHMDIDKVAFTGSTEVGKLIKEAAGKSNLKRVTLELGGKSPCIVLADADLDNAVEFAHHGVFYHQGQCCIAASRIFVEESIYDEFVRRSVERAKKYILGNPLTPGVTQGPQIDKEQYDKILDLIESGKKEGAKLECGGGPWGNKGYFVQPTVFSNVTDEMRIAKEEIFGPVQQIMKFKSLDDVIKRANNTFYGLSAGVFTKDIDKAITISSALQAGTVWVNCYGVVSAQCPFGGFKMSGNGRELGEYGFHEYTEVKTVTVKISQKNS
Assay: qHTS Assay for Inhibitors of Aldehyde Dehydrogenase 1 (ALDH1A1);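 as to activity, negative = inhibition: plate controls were no enzyme wells and a reference inhibitor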
Settings: Purified ALDH1A1, NADH fluorescence, propionaldehyde substrate; series mostly up to 75.3 µM; activity, negative = inhibition: at the top concentration
Potency is read from the fitted curve at half-maximal effect; tags tell the direction and shape of the fitted curve.

Compound | activity, negative = inhibition | Potency
CCNC(=S)NNC(=O)c1nn(C)c(C)c1Cl | inactive: 8.24% | 
CC1(C)CC2CC(C)(CN2C(=O)COC(=O)c2ccc(Cl)cc2N)C1 (configuration not stated) |  | inconclusive [inhibitor, partial curve]
COc1ccc(Cl)cc1NC(=O)C(C)N1CCc2ccccc21 (configuration not stated) |  | inconclusive [inhibitor, single point]
Cc1csc(NC(=O)CSc2ncnc3c2cnn3-c2ccccc2Cl)n1 |  | inconclusive [inhibitor, single point]
CC(C)(C)NC(=O)NC(=O)CN1CCc2ccccc21 |  | inconclusive [inhibitor, single point]
CCCCn1c(NC(=O)c2ccccc2Cl)c(C#N)c2nc3ccccc3nc21 |  | inconclusive [inhibitor, partial curve]
Cc1cnc(C(=O)Nc2cccc3ncccc23)cn1 |  | inconclusive [inhibitor, single point]
Cc1cc(C)cc(-n2c(C)cc(/C=N/NC(=O)c3cccc([N+](=O)[O-])c3C)c2C)c1 |  | inconclusive [inhibitor, partial curve]
Cc1ccc(CN(Cc2ccccc2)C(=S)NCC(=O)NCc2cccnc2)o1 |  | inconclusive [inhibitor, single point]
CC1=C(C(=O)Nc2ccccc2)C(c2ccco2)C(C#N)=C(SCC(N)=O)N1 (configuration not stated) |  | inconclusive [inhibitor, single point]
O=C1NCCN1C(=O)C12CC3CC(CC(C3)C1)C2 |  | inconclusive [inhibitor, single point]
CC1(c2cnc(Nc3ccccc3)s2)CCC(=O)O1 (configuration not stated) |  | active: 17.8 µM
CCOc1cc2[nH]c(=S)n(CC3CCCN3CC)c(=O)c2cc1OCC (configuration not stated) |  | inconclusive [inhibitor, single point]
OCCN1CCN(c2nc(NCc3ccco3)c3ccccc3n2)CC1 |  | inconclusive [inhibitor, single point]
Cn1cc(CNCc2ccccc2OCC(O)CN2CCc3ccccc3C2)cn1 (configuration not stated) | inactive: -2.27% | 
CCn1c(SCC(=O)c2cccs2)nnc1-c1ccco1 |  | inconclusive [inhibitor, single point]
CCc1nnc(NC(=O)CSc2nc(-c3ccccc3)nc3ccccc23)s1 | inactive: 0.769% | 
O=C1CC[C@](CCc2nc3ccccc3[nH]2)(c2ccccc2)C(=O)N1 | inactive: 20% [at 13.5 µM] | 
COCC(=O)N1CCC(Oc2ccc(C(=O)NCCc3ccncc3)cc2)CC1 | inactive: 0.546% | 
Cc1ccn2cc(CCNC(=O)CC3CCCCC3)nc2c1 |  | inconclusive [inhibitor, single point]
CC(=O)c1sc(NC(=O)C(C)(C)C)nc1C | inactive: 5.54% | 
O=C(CCC(=O)Nc1ccc(F)cc1)N/N=C/c1cc([N+](=O)[O-])ccc1O | inactive: -3.54% | 
CS(=O)(=O)Nc1ccc(C2=NN(S(=O)(=O)c3ccc(F)cc3)C(c3ccco3)C2)cc1 (configuration not stated) |  | inconclusive [inhibitor, single point]
Cc1ccc(-n2nnnc2SCC(=O)N(CC(C)C)c2c(N)n(CC(C)C)c(=O)[nH]c2=O)cc1 | inactive: -1.95% | 

Compound | activity, negative = inhibition | Potency
Cc1ccc(S(=O)(=O)N2N=C3CCCCC3C2(O)C(F)(F)F)cc1 (configuration not stated) |  | inconclusive [inhibitor, single point]
Cn1c2ccccc2c(=O)c2c(=O)n(-c3ccc(F)cc3)c(-c3cccs3)nc21 | inactive: -17.5% | 
Cc1csc(NC(=O)CSc2nnc(Cc3cccn3C)n2-c2ccc(F)cc2)n1 |  | inconclusive [inhibitor, single point]
O=C(CN1C(=O)CCC1=O)Nc1nc(-c2nc3ccccc3s2)cs1 |  | inconclusive [inhibitor, single point]
COc1ccc(C(=O)N2CCC3(CCCN(c4ncccn4)C3)CC2)cc1 | inactive: -6.46% | 
CCN(CC)S(=O)(=O)c1ccc(NC(=O)c2cc(C(=O)OC)cc([N+](=O)[O-])c2)cc1 |  | inconclusive [inhibitor, single point]
CCNc1ncc2nc(C)c(=O)n(-c3ccc(OC)cc3)c2n1 |  | inconclusive [inhibitor, single point]
O=C(Nc1ccc2c(c1)OCCO2)C1CCCN(S(=O)(=O)c2cccnc2)C1 (configuration not stated) | inactive: -13.7% | 
Cc1cccc(NS(=O)(=O)c2cnc(Cl)c(Br)c2)n1 | inactive: -6% | 
O=C(Cn1c(=O)n(CC(=O)NCc2ccccc2)c2ccccc21)NCc1ccccc1 | inactive: 2.59% | 
COc1cc(OC)cc(C(=O)Nn2cc(C(=O)Nc3c(F)cccc3F)c3ccccc3c2=O)c1 | inactive: 10.7% | 
O=C(NCc1ccco1)C(=O)NCC1OCCN1S(=O)(=O)c1ccc(Cl)cc1 (configuration not stated) |  | inconclusive [inhibitor, partial curve]
c1coc(-c2nnc3sc(Cc4cccs4)nn23)c1 |  | active: 20 µM
CCOC(=O)C1(C(F)(F)F)N=C(c2cccnc2)OC(N2CCCCC2)=N1 (configuration not stated) |  | inconclusive [inhibitor, single point]
Cc1cc(C)c(C#N)c(N2CCOCC2)n1 |  | inconclusive [inhibitor, single point]
CC(C)C[C@H](NC(=O)c1nc[nH]c1C(=O)N(C)Cc1ccccc1)C(=O)OC(C)(C)C |  | active: 7.94 µM
COCc1nc(-c2ccc(-c3ccc(C)cc3)nc2OC)no1 |  | inconclusive [inhibitor, single point]
Cc1nc(C)c(C(=O)Nc2ccc(C)c(F)c2)o1 |  | inconclusive [inhibitor, single point]
CC1CCCCN1C(=O)COC(=O)/C=C/c1ccc2ccccc2n1 (configuration not stated) |  | inconclusive [inhibitor, single point]
Oc1c(Br)cc(Br)cc1C=Nc1ccc2c(c1)OCCO2 | inactive: 4.3% | 
O=C(/C=C/c1ccccc1Cl)N(Cc1ccccc1)C1CCS(=O)(=O)C1 (configuration not stated) |  | active: 11.2 µM
c1ccc(-n2c(-c3ccncc3)nnc2-c2ccco2)cc1 |  | inconclusive [inhibitor, single point]
CC(=O)N(CN1C(=O)c2ccccc2C1=O)c1ccccc1 |  | inconclusive [inhibitor, partial curve]

Source: PubChem BioAssay AID1030 (National Center for Advancing Translational Sciences (NCATS), 2008)
